Assay results published in PMC12136788.
Some of the results follow.

T1: UNK ZnF1-6 (called full-length) (human, UniProt Q9C0B0 30-357)
T1 sequence: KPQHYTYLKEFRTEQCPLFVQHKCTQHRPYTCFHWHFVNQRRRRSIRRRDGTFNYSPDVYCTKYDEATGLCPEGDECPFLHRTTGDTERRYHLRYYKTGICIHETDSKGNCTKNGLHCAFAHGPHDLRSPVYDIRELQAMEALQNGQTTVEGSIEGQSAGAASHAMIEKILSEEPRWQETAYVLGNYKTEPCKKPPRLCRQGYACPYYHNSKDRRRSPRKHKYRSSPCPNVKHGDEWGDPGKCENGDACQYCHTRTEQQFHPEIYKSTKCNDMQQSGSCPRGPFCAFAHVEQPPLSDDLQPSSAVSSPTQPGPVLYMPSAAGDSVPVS

B1: chr17:50110931:50111032:+|3pUTR|ENSG00000005882|unk|total|mutant (ssRNA)
RNA: GGGAGUUCUACAGUCCGACGAUCUGUGCCCAGACAUGUGUGCUCAGGGUGGCUUUCUCCCCCGGACCUUCUGUGUAUACCGUCCGUUUUAUAACCCUGAAUGCCCCCACCCUUCCCCUAAGCACACAGGGGUUAAAGCUGUGUCAACAGAGGAUUGAGCAUCA
B2: chr2:216674221:216674322:-|3pUTR|ENSG00000115461|msi1|FALSE|unique (ssRNA)
RNA: GGGAGUUCUACAGUCCGACGAUCGCAUGCCCCAUCUCUCUGCACAGCUGUCCCCUAAACCCAACUCACGUUUCUGUAUGUCUUAGGCCAGUAUCCCAAACCUCUUCCACGUCACUGUUCUUUCCACCCAUUCUCCCUUUGCAUCAACAGAGGAUUGAGCAUCA
B3: chr5:111496093:111496242:-|3pUTR|ENSG00000164211|unk|total|mutant (ssRNA)
RNA: GGGAGUUCUACAGUCCGACGAUCUUUACAUGUACCGUUAAAUAUUAAAAUUCAUCUCUUGCAGUUCAAUAAAAGCUACCGUACCGAUUUUAUUUUUAAGAAGUUUAUAUAAUUCUUUUGUGAACCAAUAUGUAAAACCCGAAUCAACAGAGGAUUGAGCAUCA
B4: chr3:62294137:62294238:+|3pUTR|ENSG00000144724|msi1|total|mutant (ssRNA)
RNA: GGGAGUUCUACAGUCCGACGAUCUGAGACCCUUCCGUUAUUCUCCAUUAAUGCUUCUCCGUUUGUAAUACCAUACCUCACAGCCGGCCGAAGAAUGAAAACUUCUGCAGGUGUGUAAUUUUGAAACCCGUCCUCUAAAAAUUCCAACAGAGGAUUGAGCAUCA
B5: chr11:108173179:108173289:-|CDS|ENSG00000149308|unk|total|mutant (ssRNA)
RNA: GGGAGUUCUACAGUCCGACGAUCUGGUUCCAAGUCAUCAGAUUCCCGUGAAGUUCACAAGAGUAAAACCGAAAUUAAUGUGUCCGAACCAGUUAUGUCACAGCUAUCAAAUUGCCAAGAUAAUUCUUGUCUUCAAAGUGAAAUCAACAGAGGAUUGAGCAUCA
B6: ENSG00000084652:stop:overlap|stop_codon|ENSG00000084652|stop_codon|NA|stop_codon (ssRNA)
RNA: GGGAGUUCUACAGUCCGACGAUCCACCGAGCACAGAAGCAUCAGGCCAGACUGGGCCUCAAGAGCCCACCUCCGCCAGGGCCUAGAGAGCCUGGUGUUGGGUCAUGCUGGGAAGGGAGCGGCAGCCCAGCCAGGCCUGGCCCACAACAGAGGAUUGAGCAUCA
B7: chr6:105097214:105097376:-|3pUTR|ENSG00000112276|msi1|FALSE|unique (ssRNA)
RNA: GGGAGUUCUACAGUCCGACGAUCCAUGCCUUGGUUUCCUCUCCCUUCCCUCUUUCCAAUCCUGGUUUCCUAACCUCCUCUUGUAGUAAUUCUCAACUCAACUCAAAGUCCCAAGAAUUUGGAAUGGUAGGAUGCUGUGCGGGGCAACAGAGGAUUGAGCAUCA
B8: chr8:122953881:122953982:+|CDS|ENSG00000178764|msi1|FALSE|unique (ssRNA)
RNA: GGGAGUUCUACAGUCCGACGAUCGAGUCGAGCGUUGUGGAUUACGUGGAGGUGACGGUCGGGGAGGAGGAUGCGAUCUCAGAUAGAUCAGAUAGCUGGAGUCAGGCUGCGGCAGAAGGUGUGUCGGAACUGGCUGAAUCAGACCAACAGAGGAUUGAGCAUCA
B9: chr6:137492198:137493351:-|three_prime_utr|ENSG00000177468|control|control|control (ssRNA)
RNA: GGGAGUUCUACAGUCCGACGAUCGAGAUCUCAGACUCCACUUGACCCCCGGAGGGAAAGGACCAAAAUCAAACCGCAAUUUCUAGGUGGUAGCAAAGGGGGACUCGAACCAGAUGUCGUGUGUUUUGCAUGCAUGCUUCUUUUCAACAGAGGAUUGAGCAUCA
B10: chr22:38485951:38486139:-|CDS|ENSG00000100201|unk|FALSE|bound_elsewhere (ssRNA)
RNA: GGGAGUUCUACAGUCCGACGAUCUAGUAGCACCACCUCAACUGGGAGAAGUUCACAGAGCUCUAGCCAGCAGUUUAGUGGGAUAGGCCGGUCUGGGCAGCAGCCACAGCCACUGAUGUCACAACAGUUUGCACAGCCUCCGGGCAACAGAGGAUUGAGCAUCA
B11: chr19:4361374:4361475:-|3pUTR|ENSG00000141985|msi1|total|mutant (ssRNA)
RNA: GGGAGUUCUACAGUCCGACGAUCCAGGACCCCACACUUGGGUGGGGGGGCUUAUCUGGGUGGGUGGGGAUGCCUGUUUACACCCGCGCUGACUCCCAACGGUGACGGCUCCCUUCCCCACUCCAUGGCGCCAGCCUCCUCCCCCAACAGAGGAUUGAGCAUCA
B12: chr1:206732925:206733026:+|3pUTR|ENSG00000162889|msi1|total|mutant (ssRNA)
RNA: GGGAGUUCUACAGUCCGACGAUCAAGUGAGCAAGGUGCUCUUGAACCUGUGCUCAUUUUGCAAUUUUAUCAGUAAUUUGACUCCGAGUUUUUACGAAACCUCUUUUGUUGUCCUUGCCCCACUCCUCUCCACCAGACGCCUUCCAACAGAGGAUUGAGCAUCA
B13: chr1:35420597:35420698:+|3pUTR|ENSG00000146463|msi1|FALSE|bound_elsewhere (ssRNA)
RNA: GGGAGUUCUACAGUCCGACGAUCGUUCCUCUUAUUUUGUCUUUUGCACCAGUUUCUGGAGGCCCUUGUCAUUUCAAAAAGGAUAGUCUCUUUUCUUACUCUGGCAAACCUGUGAGUGAUUCCACAAAGAUACAGUAUUACUUACAACAGAGGAUUGAGCAUCA
B14: chr1:51271806:51271833:+|3pUTR|ENSG00000123091|msi1_unk|FALSE|overlapping (ssRNA)
RNA: GGGAGUUCUACAGUCCGACGAUCCAUUUGGGUCAAGGUUUUAUUAAAAGCUACAUUUUAUAACACUGGCACACACAAAAAAGUAGUUUUAAGCUUGUUUGCACAGUUCUUUUUUUCCAUUGGAAAUGGAAUUCAUUGCCUUAGCAACAGAGGAUUGAGCAUCA
B15: chr3:41225420:41225524:+|CDS|ENSG00000168036|unk|FALSE|unique (ssRNA)
RNA: GGGAGUUCUACAGUCCGACGAUCCAUGCGUUCUCCUCAGAUGGUGUCUGCUAUUGUACGUACCAUGCAGAAUACAAAUGAUGUAGAAACAGCUCGUUGUACCGCUGGGACCUUGCAUAACCUUUCCCAUCAUCGUGAGGGCUUCAACAGAGGAUUGAGCAUCA
B16: chr11:119418913:119419014:-|3pUTR|ENSG00000154096|msi1|FALSE|unique (ssRNA)
RNA: GGGAGUUCUACAGUCCGACGAUCAUCGGGACCAGAAACCUGGGAGAGACUUGGAUGAGGAGUGGUUGGGCUGUGCCUGGGCCUAGCACGGACAUGGUCUGUCCUGACAGCACUCCUCGGCAGGCAUGGCUGGUGCCUGAAGACCAACAGAGGAUUGAGCAUCA
B17: ENSG00000198589:be:win_9351|3pUTR|ENSG00000198589|bound_else_gene|NA|bound_elsewhere_windowed (ssRNA)
RNA: GGGAGUUCUACAGUCCGACGAUCAGCCACUGUUGUUUUGUUGGGGCACCCCCUUCCCUCCCCGGGUUUGCAAAUAGAGGCUACCGGGUGCUGUAUUCAGCAACACCUGUUUUACUAUUUGUUAUUAAACUAUCAUCUCCACCUCAACAGAGGAUUGAGCAUCA
B18: chr2:159349074:159349175:-|CDS|ENSG00000123636|unk|total|mutant (ssRNA)
RNA: GGGAGUUCUACAGUCCGACGAUCUGGUGUGGUUACUUCUAAUAUUCCAUUUACAUCAUCUGUACCCCGUCCCGGAUCGGGGUCCGGGUUAUCAGAAGGAAAUGGUAAUUCAUUCUUGACUUCCAAUGUUGCUUCAAGUAAAAGCAACAGAGGAUUGAGCAUCA
B19: chr12:79451877:79451978:+|3pUTR|ENSG00000067715|msi1|total|mutant (ssRNA)
RNA: GGGAGUUCUACAGUCCGACGAUCCCUUCAUUUUUGAUGAGGUGAUUUAAAUUUUGUUUCACUUUGUGCCGUGAAUUCCACAGCCGUUUUCUGAUUGUUGUUAAAAAUGACUUAACAUAUUACACAGAUAUUCAAUAAAAAUGUCAACAGAGGAUUGAGCAUCA
B20: chr11:69651622:69651678:+|3pUTR|ENSG00000110092|msi1_unk|total|mutant (ssRNA)
RNA: GGGAGUUCUACAGUCCGACGAUCUUAUACCCCAAUAAUCAACUCGUUUUUAUAUUAAUGUACUUGUUUCUCUGUUGUAAGAACCGGCAUUAACACAAAGGAGGCGUCUCGGGAGAGGAUCCGGUUCCAUCCUUUACGUGUUUACAACAGAGGAUUGAGCAUCA
B21: chr10:96238888:96239129:-|three_prime_utr|ENSG00000095585|control|control|control (ssRNA)
RNA: GGGAGUUCUACAGUCCGACGAUCAGUGUGGCCCAACAGGAUCUUCUAAGCCUUUGCAACACAAAGUUUGAUUCCCAGCAAGAUAGCAUCAACCUCAUCUGGAGCUUGUUAGAAAUGCAGAAUCUUGGCCCCACCCUAGAACUACAACAGAGGAUUGAGCAUCA
B22: chr1:153933785:153933886:-|CDS|ENSG00000198837|msi1|total|mutant (ssRNA)
RNA: GGGAGUUCUACAGUCCGACGAUCGGGAAGUUGGUGCAGAGGCUGGGGUCCAUCUUCCCUCAUUCUUUUCUGUGCUGCAGUGACCGAGGCCUUGGGGGUCCUGGAACCCCGGGGAUCACCUGUGCCCUGGCACGAUGGAAGUCUCAACAGAGGAUUGAGCAUCA

What follows are binders tested against T1, UNK ZnF1-6 (called full-length) (assay: nsRBNS (natural sequence RNA bind-n-seq); RBNS binding buffer (assumed for nsRBNS): 25 mM Tris pH 7.5, 150 mM KCl, 3 mM MgCl2, 0.01% Triton X-100, 500 ug/ml BSA, 20 U/ml SUPERase-In, 4 C; UNK is unkempt and MSI1 is Musashi-1; names of the RNAs are library labels; protein concentration not given here; high values mean tight binding).

Binder | binding signal
B1 | 1.06 enrichment R
B2 | 0.949 enrichment R
B3 | 1.21 enrichment R
B4 | 0.513 enrichment R
B5 | 0.233 enrichment R
B6 | 0.831 enrichment R
B7 | 0.769 enrichment R
B8 | 1.03 enrichment R
B9 | 0.796 enrichment R
B10 | 0.714 enrichment R
B11 | 0.721 enrichment R
B12 | 0.379 enrichment R
B13 | 0.782 enrichment R
B14 | 0.568 enrichment R
B15 | 0.6 enrichment R
B16 | 0.948 enrichment R
B17 | 1.28 enrichment R
B18 | 0.375 enrichment R
B19 | 0.573 enrichment R
B20 | 0.781 enrichment R
B21 | 1.11 enrichment R
B22 | 1.2 enrichment R
